Assay results: PubChem BioAssay AID686978 (National Center for Advancing Translational Sciences (NCATS), 2013)
Several values for one entry are separate records, joined by “and”; a condition that tells them apart may be missing. Identical values can stand only once. Screen size: about 420,000 compounds; about 64,000 (15%) were called active. Inconclusive means that the source gave no clear call. Such entries were picked first, then a sample of the others. The call rests on the fitted dose curve; in most records, active means well fitted inhibition curve with a large enough effect; inconclusive means small, poorly fitted or top-dose-only effect; inactive means flat fitted curve, though single readings scatter. Potencies of inconclusive entries are left out as doubtful fits.

Experiment: qHTS for Inhibitors of human tyrosyl-DNA phosphodiesterase 1 (TDP1): qHTS in cells in absence of CPT; further: nearly all actives have a fitted effect of over 55% in size
Settings: DT40 Tdp1-/- hTDP1 cells, no CPT, ATP luminescence, 48 h; activity change, negative = growth inhibition: at 46.2 µM (top of the series) unless noted
Procedure, shortened: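 Growth of hTDP1-complemented DT40 Tdp1-knockout cells is measured by ATP luminescence after at least 48 hr compound exposure at 37 °C, with DMSO substituting for the 20 nM CPT used in the parallel screen.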
On the % scale 0 is the no-effect control and ±100 the full control effect; potency means the concentration at half of the fitted maximal effect; tags describe the fitted curve by direction and shape.

| Compound | activity change, negative = growth inhibition | Potency |
| --- | --- | --- |
| FC(F)(F)C1=NC(C(F)(F)F)=NP(N2CCOCC2)(N2CCOCC2)=N1 | inactive: -0.688% |  |
| COC(=O)C1=C(c2ccc(F)cc2OCc2ccccc2)C[C@@H]2CC[C@H]1N2C(=O)NCc1ccc(OC)cc1 |  | inconclusive [inhibitor, single point] |
| CN1C(=O)CC(=O)N(c2ccccc2)c2cc(Cl)ccc21 | inactive: -11.8% |  |
| COc1cc(CN2CC=C(c3ccc(F)cc3)CC2)cc(OC)c1 |  | inconclusive [inhibitor, single point] |
| O=C1NCN(c2ccccc2)C12CCN(C(c1nnnn1C1CCCCC1)C1CC1)CC2 (stereo not given) |  | inconclusive [inhibitor, single point] |
| CC(NCc1cccc(Cl)c1Cl)C(O)c1ccccc1 (stereo not given) | inconclusive: -37.2% [inhibitor] |  |
| COc1ccc(-n2c(=O)[nH]c3ccccc3c2=O)c(OC)c1 | inactive: -18.8% |  |
| Cc1ccc(NC(=O)CN2C(=O)CN=C(c3ccccc3)c3ccccc32)cc1 |  | inconclusive [inhibitor, single point] |
| N#CCC(=O)NN1Cc2ccccc2C1=N | inactive: -4.24% |  |
| CC(OC(=O)COc1ccc(Nc2ccccc2)cc1)C(=O)N(C)c1ccccc1 (stereo not given) |  | inconclusive [inhibitor, partial curve] |
| CCCC(C)(COC(N)=O)COC(=O)NC(C)C (stereo not given) |  | inactive |
| CC(=NCC1CCCO1)c1c(O)n(C)c(=O)n(C)c1=O (stereo not given) | inactive: -0.907% |  |
| CN(C)S(=O)(=O)c1ccc(C(=O)NCCSc2c(-c3ccccc3)[nH]c3ccccc23)cc1 |  | active: 6.51 µM |
| CCc1nc2ccccc2c(=O)n1-c1ccccc1[N+](=O)[O-] |  | inconclusive [inhibitor, single point] |
| Cc1ccc(-n2nc3ccc(NC(=O)COc4ccccc4C)cc3n2)cc1 |  | inconclusive [inhibitor, single point] |
| O=C(N[C@H]1N=C(c2ccccc2F)c2cccc3c2N(CC3)C1=O)c1cc2ccccc2[nH]1 | inactive: -19.7% |  |
| CN1C(=O)/C(=C\c2ccc(N3CCCCC3)o2)C(=O)NC1=S |  | inconclusive [inhibitor, partial curve] |
| CCCCC/C=C\C/C=C\C/C=C\C/C=C\CCCC(=O)NCC(=O)O | inactive: -2.6% [at 4.12 µM] |  |
| O=C(c1ccccc1[N+](=O)[O-])N1CCC2(CC1)OCCO2 | inactive: -1.62% |  |
| CCOc1ccc(-n2c(CC)nc3ccccc3c2=O)cc1 |  | inconclusive [inhibitor, single point] |
| Oc1ccc(Cl)cc1Cc1cc(Cl)ccc1O |  | active: 8.41 µM and active: 14.6 µM |
| CC1C(=O)OC2CCN3CC=C(COC(=O)[C@](C)(O)[C@]1(C)O)C23 (stereo not given in full) | inactive: -28.1% |  |
| c1ccc([C@@H]2CO2)cc1 | inactive: 12.7% |  |
| CCC(=NCC1CCCO1)c1c(O)n(-c2ccccc2C)c(=O)[nH]c1=O (stereo not given) | inactive: -21.5% |  |

| Compound | activity change, negative = growth inhibition | Potency |
| --- | --- | --- |
| O=C(Nc1cccc(F)c1)N1CC2(CCN(C(=O)Oc3ccccc3)CC2)C1 |  | inconclusive [inhibitor, single point] |
| CCOc1ccc(N=Cc2c(O)n(C(C)(C)C)c(=O)[nH]c2=O)cc1 |  | inconclusive [inhibitor, single point] |
| c1ccc(CN2Cc3ccccc3-n3nncc3C2)cc1 |  | inconclusive [inhibitor, partial curve, poor fit] |
| COc1c(O)c2c(=O)cc(OC)c3c4c(OC)cc(=O)c5c(O)c(OC)c(C[C@@H](C)OC(=O)c6ccccc6)c(c(c1C[C@@H](C)OC(=O)Oc1ccc(O)cc1)c23)c54 |  | inconclusive [inhibitor, single point] |
| ClCCN(CCCl)c1ccc(C=Nc2ccc(/C=C/c3ccnc4ccccc34)cc2)cc1 |  | active: 11.2 µM |
| Cc1cccc(N=C2c3cc([N+](=O)[O-])ccc3-c3c2cc([N+](=O)[O-])cc3[N+](=O)[O-])c1 |  | active: 18.4 µM |
| CN1C(=O)C(=Cc2ccc(OCCN(C)c3ccccn3)cc2)C(=O)N(C)C1=O | inactive: 9.42% |  |
| O=C1C2C3CCC(C3)C2C(=O)N1c1ccc(OS(=O)(=O)c2ccccc2)cc1 (stereo not given) |  | inconclusive [inhibitor, single point] |
| COC(=O)C1=C(c2cccc(OC)c2OC)C[C@@H]2CC[C@H]1N2C(=O)NCCS(C)=O (stereo not given in full) | inactive: -1.67% |  |
| O=C(N=Nc1c(O)[nH]c(=O)[nH]c1=O)C1COc2ccccc2O1 (stereo not given) |  | inconclusive [inhibitor, single point] |
| CCC1CN1P(=O)(Oc1ccc(Cl)cc1)N1CC1CC (stereo not given) |  | inconclusive [inhibitor, single point] |
| Cc1cc(/C=C/c2ccnc3ccccc23)ccc1N(CCCl)CCCl |  | active: 25.1 µM |
| CN(C)C1CCc2[nH]c3c(F)cc(F)cc3c2C1 (stereo not given) |  | inconclusive [inhibitor, single point] |
| COP(=O)(OC)C1(O)C(=O)Nc2ccc(Br)cc21 (stereo not given) |  | inconclusive [inhibitor, single point] |
| CCN(CC)CCN1Cc2ccccc2C1=N | inactive: -28.5% |  |
| Nc1c(C(=O)Nc2ccc(Cl)c(C(F)(F)F)c2)sc2nc3c(cc12)N1CCC3CC1 |  | active: 13 µM |
| COc1cccc(NP(=O)(Oc2ccccc2Cl)Oc2ccccc2Cl)c1 |  | active: 18.4 µM |
| CCCCOc1ccc(C(=O)N2CC(=O)Nc3ccc(Br)cc3C2c2ccc(F)cc2)cc1 (stereo not given) |  | inconclusive [inhibitor, single point] |
| COc1cc(C(C)=O)ccc1OCc1cc(C(=O)N(C)CCC2CCCCO2)no1 (stereo not given) |  | inconclusive [inhibitor, partial curve, poor fit] |
| COc1ccc(-c2ccc3c(c2)CN(C(=O)NC2CCCCC2)Cc2cnnn2-3)cc1 |  | inconclusive [inhibitor, single point] |
| CC(C)(C)n1nnnc1C(c1cccs1)N1CCC2(CC1)C(=O)NCN2c1ccccc1 (stereo not given) | inconclusive: -31% [inhibitor] |  |
| COc1ccc(-c2ccc3c(c2)CN(C(=S)NCCc2ccccc2)Cc2cnnn2-3)cc1 |  | inconclusive [inhibitor, single point] |
| CC(=O)N1CCN(CCN=Cc2c(O)n(-c3ccc(C)cc3)c(=S)[nH]c2=O)CC1 | inactive: -9.53% |  |
| CC(C)CCP(=O)(O)c1ccccc1 | inactive: 2.94% |  |

| Compound | activity change, negative = growth inhibition | Potency |
| --- | --- | --- |
| S=C1CN=C(c2ccccc2)c2cc(Cl)ccc2N1 |  | inconclusive [inhibitor, single point] |
| C=CCN1CC[C@@]2(C)c3cc(O)ccc3CC1[C@@H]2C |  | inconclusive [inhibitor, single point] |
| COc1ccc(-n2c(/C=C/c3cccc(F)c3)nc3ccccc3c2=O)c(OC)c1 |  | inconclusive [inhibitor, partial curve] |
| CC(O)CN1CCN(CC(=O)[O-])CCN(CC(=O)[O-])CCN(CC(=O)[O-])CC1.[Gd+3] (stereo not given) |  | inactive |
| CCN(CC)S(=O)(=O)c1ccc(C)c(NCC(=O)Nc2ccc(C#N)c(Cl)c2)c1 |  | active: 14.6 µM |
| COC(=O)C1=C(c2cc3ccccc3o2)C[C@@H]2CC[C@H]1N2C(=O)N1CCC(O)CC1 |  | active: 23.1 µM |
| COc1ccc(-n2c(/C=C\c3ccccc3F)nc3ccccc3c2=O)cc1OC |  | active: 16.4 µM |
| COC(=O)C1=C(c2cccc3c2S(=O)(=O)c2ccccc2-3)C[C@@H]2CC[C@H]1N2C(=O)N1CCOCC1 |  | inconclusive [inhibitor, single point] |
| O=C1NCN(c2ccccc2)C12CCN(C[C@H]1COc3ccccc3O1)CC2 | inactive: -24.8% |  |
| COc1ccc(-c2nn(CCC#N)cc2C(=O)Nc2ccc(C(C)=O)cc2)cc1 | inactive: 5.46% |  |
| CC(C)COP(=O)(c1ccc(N(C)C)cc1)C(Nc1ccccc1)c1cccnc1 (stereo not given) |  | inconclusive [inhibitor, partial curve] |
| O=c1c2ccccc2nc(-c2ccco2)n1-c1ccccc1 |  | inconclusive [inhibitor, partial curve] |
| CC(C)=CCC/C(C)=C/CNC(=O)C[C@H]1C[C@H](C(=O)N(C(C)C)C(C)C)[C@@]2(C)c3[nH]c4ccc(Cl)cc4c3CCN2C1=O |  | inconclusive [inhibitor, single point] |
| Cc1cccc(NC(=O)c2ncn3c2C(=O)NC[C@H]3C)c1 |  | inconclusive [inhibitor, single point] |
| FC(F)(F)c1cccc(NC2=NCCS2)c1 |  | inconclusive [inhibitor, partial curve, poor fit] |
| Cc1cc(OCC(=O)N2CCCN(C)CC2)ccc1Cl | inactive: 0.0732% |  |
| CC(=O)c1ccc(S(=O)(=O)N2CCN(c3nc4c(C)c(C)ccc4cc3C#N)CC2)cc1 |  | active: 12.6 µM |
| CC(=O)O[C@H]1CCC2C3CC[C@H]4[C@@H](O)[C@H](O)CC[C@]4(C)C3CC[C@@]21C (stereo not given in full) |  | inconclusive [inhibitor, partial curve] |
| CN(C)c1ccc(NC(=O)CN2C3CCCC2CC(NC(=O)c2ccccc2)C3)cc1 (stereo not given) |  | inconclusive [inhibitor, single point] |
| COC(=O)C1=C(c2ccc(F)cc2OCc2ccccc2)C[C@@H]2CC[C@H]1N2C(=O)NCc1ccc([N+](=O)[O-])cc1 |  | inconclusive [inhibitor, single point] |
| Oc1ccc2c3c1O[C@H]1c4[nH]c5c(c4C[C@@]4(O)[C@@H](C2)N(CC2CC2)CC[C@]314)C[C@]1(O)[C@H]2Cc3ccc(O)c4c3[C@@]1(CCN2CC1CC1)[C@@H]5O4 | inactive: -4.08% |  |
| CCOc1cc(-c2nc3c(C)cccn3c2NCC2CCCO2)ccc1O (stereo not given) |  | inconclusive [inhibitor, partial curve] |
